Measurements: ChEMBL document CHEMBL4888484, “Replenishing the malaria drug discovery pipeline: Screening and hit evaluation of the MMV Hit Generation Library 1 (HGL1) against asexual blood stage Plasmodium falciparum ,using a nano luciferase reporter read-out” (2022)
Screen size: about 150,000 compounds; about 540 (0.36%) showed an effect of 50% or more. The list shows a part of the results.

These molecules were tested on Plasmodium falciparum (assay: Primary screen in NF54 nanoGlo assay, in single point, at 2uM, 72h; a lower Z score goes with more inhibition). Settings: timepoint 72 hour.
Assay type: functional, Erythrocyte

Compared with `COc1ccc(-c2cn3c(C(=O)N(C)CCc4ccccn4)csc3n2)cc1F`, `COc1ccc(C(=O)N2CCNC(=O)[C@@H]2Cc2ccccc2)cc1F` is higher in “% Inhibition” value: -14% for the first, -1% for the second.

First: Cc1nc(C(C)C)sc1[C@H](C)N(C)Cc1nnsc1Cl
Second: CC(C)C(NC(=O)c1c(Cl)cccc1Cl)C(C)C
The “% Inhibition” value of the first is lower: -10% for the first, -7% for the second.

Compared with `Cc1cccc(OC2CCCCC2NC(=O)c2c[nH]nn2)c1` (centres undefined), `COc1ccc([C@@]2(C)NC(=O)N(CC(=O)NC3CCCC3)C2=O)cc1OC` is higher in “% Inhibition” value: -11% for the first, -2% for the second.

First: CCC1(CC)C(=O)N(C)C(=O)N/C1=N\Nc1ccccc1
Second: CCC(CC)(CNC(=NC)NCc1nncn1C)c1ccccc1
The “% Inhibition” value of the first is higher: 29% for the first, -8% for the second.

First: Cn1c(C(=O)NCCCn2ccnc2)cc2oc(-c3ccccc3Cl)cc21
Second: C[C@@H](CCN1CCC(=O)N(Cc2ccncc2)CC1)c1ccccc1
The “% Inhibition” value of the first is higher: 5% for the first, -1% for the second.

`Cc1c(-c2nn3c(Cc4ccccc4)nnc3s2)nnn1-c1ccc(Cl)cc1` and `O=C(Nc1ccc(N2CCCN(Cc3ccc(F)c(F)c3)C2=O)cc1)c1ccccc1` are the same in “% Inhibition” value: -7% for the first, -7% for the second.

First: COC(=O)c1ccc(F)c(NCC(=O)N2CCCCCCC2)c1
Second: CCCNC(=O)O[C@@H]1CC[C@]2(C)[C@H](CC[C@@H](O)[C@H]2CC(=O)N2CCCC2)[C@]1(C)CO
The “% Inhibition” value of the first is higher: -6% for the first, -9% for the second.

Going from `CC(C)(C)c1ccc(Oc2nc3ccccc3nc2N2CCCCCC2)cc1` to `COc1ccc(-c2noc([C@@H]3CCCN3C(=O)Nc3ccc(F)c(Cl)c3)n2)cc1`, the “% Inhibition” value rises from -9% to -1%.

Going from `O=C(O)C1C2C=CC(CC2)C1C(=O)N1CCC(Cc2ccccc2)CC1` (centres undefined) to `O=C(c1cc(-c2ccccc2)n[nH]1)N1CCC(Oc2cccnn2)CC1`, the “% Inhibition” value rises from -44% to -13%.

Going from `Cn1c(CCc2ccco2)nnc1N1CCC(OC2CCC2)CC1` to `Cc1cccc(N2CCC(N3CCc4nocc4C3)CC2)c1`, the “% Inhibition” value falls from -10% to -18%.

First: CC(C)NC(=O)[C@@H]1C[C@@H](N)CN1C(=O)Cc1csc(-c2ccccc2)n1
Second: CCCc1nc(C(=O)N[C@@H]2c3ccccc3C3(CCNCC3)[C@H]2O)cs1
The “% Inhibition” value of the first is higher: 2% for the first, -4% for the second.

Going from `O=C(c1ccccc1)N1c2ccccc2C=C[C@H]1c1c[nH]c2ccccc12` to `CCc1sc(N(C(=O)Cc2ccccc2)c2ccccc2Cl)nc1-c1ccccc1`, the “% Inhibition” value falls from 4% to -11%.

First: CCOC(=O)[C@H]1CCCN(CC(=O)N(C)C)C1
Second: C#CCCC1(CCC(=O)N2CC(C3CCCCC3)CC2C(=O)O)N=N1 (centres undefined)
The “% Inhibition” value of the first is lower: -2% for the first, -1% for the second.

First: Cc1ccc(S(=O)(=O)N2CCC3(CC2)C(=O)N(CC(=O)NC[C@H]2CCCO2)CN3c2ccccc2)cc1
Second: O=C(c1cccc(Cl)c1)N(CCS(=O)(=O)N1CCNCC1)C1CCCC1
The “% Inhibition” value of the first is higher: -3% for the first, -10% for the second.

First: CCc1ccc(Cn2nc(CC(N)=O)nc2-c2ncccc2C)cc1
Second: Cc1ccc(-c2ocnc2C(=O)Nc2cccc(C)c2C)o1
The “% Inhibition” value of the first is lower: -6% for the first, 2% for the second.

Compared with `CCc1ccccc1S(=O)(=O)N1CCc2[nH]cnc2C1`, `Cc1nc2c(C)cccc2cc1C(=O)NC[C@H]1CN(S(C)(=O)=O)CCO1` is higher in “% Inhibition” value: -16% for the first, 15% for the second.

First: NC(=O)N1CCCN(C(=O)c2ccncc2C(F)(F)F)CC1
Second: O=C(NC1CC1)c1cccc(C(=O)N2CCN(c3c(F)cccc3F)CC2)c1
The “% Inhibition” value of the first is higher: -4% for the first, -8% for the second.

First: Cn1cc([C@H](NS(=O)(=O)c2ccco2)c2ccc(F)cc2)cn1
Second: O=C(c1ccncc1)N1CC[C@H](c2nc3ccccc3o2)C1
The “% Inhibition” value of the first is lower: -10% for the first, 18% for the second.

Compared with `CC1CN(S(=O)(=O)c2ccc3c(c2)Cc2cc(S(=O)(=O)N4CC(C)OC(C)C4)ccc2-3)CC(C)O1` (centres undefined), `Nc1nc(C2CC(O)C2)cc(N2CCN(c3ccc(F)cc3)CC2)n1` (centres undefined) is higher in “% Inhibition” value: -12% for the first, 1% for the second.

Compared with `CN(C)Cc1ccc(C(=O)N2CCOCC(F)(F)C2)cn1`, `Cc1cnc(C(C)NC(=O)C2COc3ccc(Br)cc32)o1` (centres undefined) is higher in “% Inhibition” value: -11% for the first, -10% for the second.

Going from `Cn1nc([C@H]2CCCOC2)cc1NC(=O)NCC(F)(F)c1cccc(F)c1` to `O=C(NC1CCN(c2cnsn2)CC1)c1ccc(F)c(F)c1`, the “% Inhibition” value falls from 10% to -25%.

Going from `Cc1noc2ncc(C(=O)N(CCc3cccs3)Cc3cccs3)cc12` to `CCN(c1cccc(C)c1)c1nc(-c2ccccc2)ncc1C(=O)N1CCN(c2ccccc2F)CC1`, the “% Inhibition” value falls from -6% to -12%.

First: CCC1(C)CCCN(CC(C#N)CCC#N)CC1 (centres undefined)
Second: CCOC(=O)N1CCC(N2CCOc3c(cc(-c4ccc(OC)nn4)cc3OC)C2)CC1
The “% Inhibition” value of the first is lower: -9% for the first, -7% for the second.

Going from `O=C(Cn1ccn2nc3c(c2c1=O)CCCC3)N1CCCc2ccccc21` to `CN(CC(=O)N[C@H]1CCCCNC1=O)c1ccccc1Oc1ccccc1`, the “% Inhibition” value falls from -3% to -14%.

Going from `Cc1cc(C)n(-c2cncc(N[C@H]3CCc4nc(C)nn4C3)n2)n1` to `CCn1nnc2cc(C(=O)N3CCc4cc(OC)c(OC)cc4C3)ccc21`, the “% Inhibition” value falls from 4% to -4%.

Compared with `Cc1ccc2[nH]c(CN[C@@H](C)CNS(=O)(=O)C3CC3)nc2c1`, `CCCOc1ccc([C@H](C)NC(=O)NCCCN(C)C)cc1OCCC` is lower in “% Inhibition” value: -1% for the first, -6% for the second.

Going from `COc1ccc(-c2cn3c(C(=O)N(C)CCc4ccccn4)csc3n2)cc1F` to `COc1ccc(C(=O)N2CCNC(=O)[C@@H]2Cc2ccccc2)cc1F`, the Z score falls from 1.96 to 0.3.

Going from `Cc1nc(C(C)C)sc1[C@H](C)N(C)Cc1nnsc1Cl` to `CC(C)C(NC(=O)c1c(Cl)cccc1Cl)C(C)C`, the Z score falls from 1.06 to 0.92.

First: Cc1cccc(OC2CCCCC2NC(=O)c2c[nH]nn2)c1 (centres undefined)
Second: COc1ccc([C@@]2(C)NC(=O)N(CC(=O)NC3CCCC3)C2=O)cc1OC
The Z score of the first is higher: 1.76 for the first, 0.38 for the second.

Going from `CCC1(CC)C(=O)N(C)C(=O)N/C1=N\Nc1ccccc1` to `CCC(CC)(CNC(=NC)NCc1nncn1C)c1ccccc1`, the Z score rises from -3.73 to 1.4.

Going from `Cn1c(C(=O)NCCCn2ccnc2)cc2oc(-c3ccccc3Cl)cc21` to `C[C@@H](CCN1CCC(=O)N(Cc2ccncc2)CC1)c1ccccc1`, the Z score rises from -0.83 to 0.14.

First: Cc1c(-c2nn3c(Cc4ccccc4)nnc3s2)nnn1-c1ccc(Cl)cc1
Second: O=C(Nc1ccc(N2CCCN(Cc3ccc(F)c(F)c3)C2=O)cc1)c1ccccc1
The Z score of the first is higher: 1.12 for the first, 0.91 for the second.

First: COC(=O)c1ccc(F)c(NCC(=O)N2CCCCCCC2)c1
Second: CCCNC(=O)O[C@@H]1CC[C@]2(C)[C@H](CC[C@@H](O)[C@H]2CC(=O)N2CCCC2)[C@]1(C)CO
The Z score of the first is lower: 0.76 for the first, 1.33 for the second.

Going from `CC(C)(C)c1ccc(Oc2nc3ccccc3nc2N2CCCCCC2)cc1` to `COc1ccc(-c2noc([C@@H]3CCCN3C(=O)Nc3ccc(F)c(Cl)c3)n2)cc1`, the Z score falls from 1.03 to 0.2.

Compared with `O=C(O)C1C2C=CC(CC2)C1C(=O)N1CCC(Cc2ccccc2)CC1` (centres undefined), `O=C(c1cc(-c2ccccc2)n[nH]1)N1CCC(Oc2cccnn2)CC1` is lower in Z score: 5.22 for the first, 2.48 for the second.

Going from `Cn1c(CCc2ccco2)nnc1N1CCC(OC2CCC2)CC1` to `Cc1cccc(N2CCC(N3CCc4nocc4C3)CC2)c1`, the Z score rises from 1.86 to 2.09.

Compared with `CC(C)NC(=O)[C@@H]1C[C@@H](N)CN1C(=O)Cc1csc(-c2ccccc2)n1`, `CCCc1nc(C(=O)N[C@@H]2c3ccccc3C3(CCNCC3)[C@H]2O)cs1` is higher in Z score: -0.41 for the first, 0.85 for the second.

Going from `O=C(c1ccccc1)N1c2ccccc2C=C[C@H]1c1c[nH]c2ccccc12` to `CCc1sc(N(C(=O)Cc2ccccc2)c2ccccc2Cl)nc1-c1ccccc1`, the Z score rises from -0.58 to 1.44.

Compared with `CCOC(=O)[C@H]1CCCN(CC(=O)N(C)C)C1`, `C#CCCC1(CCC(=O)N2CC(C3CCCCC3)CC2C(=O)O)N=N1` (centres undefined) is lower in Z score: 0.22 for the first, 0.07 for the second.

Compared with `Cc1ccc(S(=O)(=O)N2CCC3(CC2)C(=O)N(CC(=O)NC[C@H]2CCCO2)CN3c2ccccc2)cc1`, `O=C(c1cccc(Cl)c1)N(CCS(=O)(=O)N1CCNCC1)C1CCCC1` is higher in Z score: 0.47 for the first, 1.09 for the second.

First: CCc1ccc(Cn2nc(CC(N)=O)nc2-c2ncccc2C)cc1
Second: Cc1ccc(-c2ocnc2C(=O)Nc2cccc(C)c2C)o1
The Z score of the first is higher: 1.12 for the first, -0.22 for the second.

Going from `CCc1ccccc1S(=O)(=O)N1CCc2[nH]cnc2C1` to `Cc1nc2c(C)cccc2cc1C(=O)NC[C@H]1CN(S(C)(=O)=O)CCO1`, the Z score falls from 1.81 to -1.92.

First: NC(=O)N1CCCN(C(=O)c2ccncc2C(F)(F)F)CC1
Second: O=C(NC1CC1)c1cccc(C(=O)N2CCN(c3c(F)cccc3F)CC2)c1
The Z score of the first is lower: 0.56 for the first, 0.94 for the second.

Compared with `Cn1cc([C@H](NS(=O)(=O)c2ccco2)c2ccc(F)cc2)cn1`, `O=C(c1ccncc1)N1CC[C@H](c2nc3ccccc3o2)C1` is lower in Z score: 1.47 for the first, -2.11 for the second.

Compared with `CC1CN(S(=O)(=O)c2ccc3c(c2)Cc2cc(S(=O)(=O)N4CC(C)OC(C)C4)ccc2-3)CC(C)O1` (centres undefined), `Nc1nc(C2CC(O)C2)cc(N2CCN(c3ccc(F)cc3)CC2)n1` (centres undefined) is lower in Z score: 1.53 for the first, -0.16 for the second.

First: CN(C)Cc1ccc(C(=O)N2CCOCC(F)(F)C2)cn1
Second: Cc1cnc(C(C)NC(=O)C2COc3ccc(Br)cc32)o1 (centres undefined)
The Z score of the first is lower: 1.36 for the first, 1.79 for the second.

Going from `Cn1nc([C@H]2CCCOC2)cc1NC(=O)NCC(F)(F)c1cccc(F)c1` to `O=C(NC1CCN(c2cnsn2)CC1)c1ccc(F)c(F)c1`, the Z score rises from -1.64 to 3.17.

Compared with `Cc1noc2ncc(C(=O)N(CCc3cccs3)Cc3cccs3)cc12`, `CCN(c1cccc(C)c1)c1nc(-c2ccccc2)ncc1C(=O)N1CCN(c2ccccc2F)CC1` is higher in Z score: 0.78 for the first, 2.13 for the second.

Going from `CCC1(C)CCCN(CC(C#N)CCC#N)CC1` (centres undefined) to `CCOC(=O)N1CCC(N2CCOc3c(cc(-c4ccc(OC)nn4)cc3OC)C2)CC1`, the Z score falls from 1.26 to 0.98.

First: O=C(Cn1ccn2nc3c(c2c1=O)CCCC3)N1CCCc2ccccc21
Second: CN(CC(=O)N[C@H]1CCCCNC1=O)c1ccccc1Oc1ccccc1
The Z score of the first is lower: 0.49 for the first, 1.82 for the second.

Compared with `Cc1cc(C)n(-c2cncc(N[C@H]3CCc4nc(C)nn4C3)n2)n1`, `CCn1nnc2cc(C(=O)N3CCc4cc(OC)c(OC)cc4C3)ccc21` is higher in Z score: -0.74 for the first, 0.52 for the second.

Compared with `Cc1ccc2[nH]c(CN[C@@H](C)CNS(=O)(=O)C3CC3)nc2c1`, `CCCOc1ccc([C@H](C)NC(=O)NCCCN(C)C)cc1OCCC` is higher in Z score: 0.21 for the first, 0.62 for the second.
